# In the supplement of paper PMC8728848:
# The list shows a part of the results.
# B1: HA-11100 (Pseudomonas aeruginosa), Q02G51_PSEAB (protein)
# chain: QFNPNEIKISQQGKTTLIDQSTQRAIINWKGFDVSADEAVRFNQPGVTSSTLNRVTAGQESVIAGRISAPGQVIIYNSNGVVFSGSAKVDVGSLITTTANISDEHFRQGKLIFDQPGNPDARIVNDGSISVAEKGLAAFVAPSVANNGVINARLGTVAMAAGNAATIDLYG
# Tests used:
# Test in all cases: glycan array binding signal (z-score within array); higher = stronger binding
# Conditions in all cases: glycan notation: IUPAC condensed, linker removed
# [1] = molecular target: Neu5Ac(a2-6)Gal(b1-4)GlcNAc(b1-2)Man(a1-6)[GlcNAc(b1-2)Man(a1-3)]Man(b1-4)GlcNAc(b1-4)GlcNAc
# Procedure, shortened: (§1)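 Glycan array data were curated from 3228 arrays in the Consortium for Functional Glycomics database and kept only where the protein sequence was available. Glycan names were converted to IUPAC-condensed notation, and columns mapping to the same glycan were averaged. The binding signal is a within-array Z-score, averaged across arrays of the same protein sequence at different concentrations or buffers and across linkers. Negative Z-scores can be read as non-binding.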
# [2] = molecular target: Neu5Ac(a2-6)Gal(b1-4)GlcNAc(b1-2)Man(a1-6)[Man(a1-3)]Man(b1-4)GlcNAc(b1-4)GlcNAc
# Procedure, shortened: as §1
# [3] = molecular target: Neu5Ac(a2-6)Gal(b1-4)GlcNAc(b1-2)[Neu5Ac(a2-6)Gal(b1-4)GlcNAc(b1-4)]Man(a1-3)[GlcNAc(b1-4)][Neu5Ac(a2-6)Gal(b1-4)GlcNAc(b1-2)[Neu5Ac(a2-6)Gal(b1-4)GlcNAc(b1-6)]Man(a1-6)]Man(b1-4)GlcNAc(b1-4)GlcNAc
# Procedure, shortened: as §1
# [4] = molecular target: Neu5Ac(a2-6)Gal(b1-4)GlcNAc(b1-2)[Neu5Ac(a2-6)Gal(b1-4)GlcNAc(b1-4)]Man(a1-3)[GlcNAc(b1-4)][Neu5Ac(a2-6)Gal(b1-4)GlcNAc(b1-4)Man(a1-6)]Man(b1-4)GlcNAc(b1-4)GlcNAc
# Procedure, shortened: as §1
# [5] = molecular target: Neu5Ac(a2-6)Gal(b1-4)GlcNAc(b1-2)[Neu5Ac(a2-6)Gal(b1-4)GlcNAc(b1-6)]Man(a1-6)[Neu5Ac(a2-6)Gal(b1-4)GlcNAc(b1-2)Man(a1-3)][GlcNAc(b1-4)]Man(b1-4)GlcNAc(b1-4)GlcNAc
# Procedure, shortened: as §1
# [6] = molecular target: Neu5Ac(a2-6)Gal(b1-4)GlcNAc(b1-3)Gal(b1-3)GlcNAc
# Procedure, shortened: as §1
# [7] = molecular target: Neu5Ac(a2-6)Gal(b1-4)GlcNAc(b1-3)Gal(b1-4)GlcNAc
# Procedure, shortened: as §1
# [8] = molecular target: Neu5Ac(a2-6)Gal(b1-4)GlcNAc(b1-3)Gal(b1-4)GlcNAc(b1-2)Man(a1-3)[Neu5Ac(a2-6)Gal(b1-4)GlcNAc(b1-3)Gal(b1-4)GlcNAc(b1-2)Man(a1-6)]GalNAc
# Procedure, shortened: as §1
# [9] = molecular target: Neu5Ac(a2-6)Gal(b1-4)GlcNAc(b1-3)Gal(b1-4)GlcNAc(b1-3)Gal(b1-4)GlcNAc
# Procedure, shortened: as §1
# [10] = molecular target: Neu5Ac(a2-6)Gal(b1-4)GlcNAc(b1-3)Gal(b1-4)GlcNAc(b1-3)Gal(b1-4)GlcNAc(b1-2)Man(a1-3)[Neu5Ac(a2-6)Gal(b1-4)GlcNAc(b1-3)Gal(b1-4)GlcNAc(b1-3)Gal(b1-4)GlcNAc(b1-2)Man(a1-6)]GalNAc
# Procedure, shortened: as §1
# [11] = molecular target: Neu5Ac(a2-6)Gal(b1-4)GlcNAc(b1-3)Gal(b1-4)GlcNAc(b1-3)GalNAc
# Procedure, shortened: as §1
# [12] = molecular target: Neu5Ac(a2-6)Gal(b1-4)GlcNAc(b1-3)Gal(b1-4)GlcNAc(b1-3)[Neu5Ac(a2-6)Gal(b1-4)GlcNAc(b1-3)Gal(b1-4)GlcNAc(b1-6)]GalNAc
# Procedure, shortened: as §1
# [13] = molecular target: Neu5Ac(a2-6)Gal(b1-4)GlcNAc(b1-3)Gal(b1-4)GlcNAc(b1-6)[Gal(b1-3)]GalNAc
# Procedure, shortened: as §1
# [14] = molecular target: Neu5Ac(a2-6)Gal(b1-4)GlcNAc(b1-3)Gal(b1-4)[Fuc(a1-3)]GlcNAc(b1-3)Gal(b1-4)[Fuc(a1-3)]GlcNAc
# Procedure, shortened: as §1
# [15] = molecular target: Neu5Ac(a2-6)Gal(b1-4)GlcNAc(b1-3)GalNAc
# Procedure, shortened: as §1
# [16] = molecular target: Neu5Ac(a2-6)Gal(b1-4)GlcNAc(b1-3)[Neu5Ac(a2-6)Gal(b1-4)GlcNAc(b1-6)]GalNAc
# Procedure, shortened: as §1
# [17] = molecular target: Neu5Ac(a2-6)Gal(b1-4)GlcNAc(b1-6)GalNAc
# Procedure, shortened: as §1
# [18] = molecular target: Neu5Ac(a2-6)Gal(b1-4)GlcNAc(b1-6)[Gal(b1-3)GlcNAc(b1-3)]Gal(b1-4)Glc
# Procedure, shortened: as §1
# [19] = molecular target: Neu5Ac(a2-6)Gal(b1-4)GlcNAc(b1-6)[Gal(b1-3)]GalNAc
# Procedure, shortened: as §1
# [20] = molecular target: Neu5Ac(a2-6)Gal(b1-4)GlcNAc6S
# Procedure, shortened: as §1
# Neu5Ac(a2-6)GalNAc = molecular target: Neu5Ac(a2-6)GalNAc
# Procedure, shortened: as §1
# [21] = molecular target: Neu5Ac(a2-6)GalNAc(b1-4)GlcNAc
# Procedure, shortened: as §1
# [22] = molecular target: Neu5Ac(a2-6)GalNAc(b1-4)GlcNAc6S
# Procedure, shortened: as §1
binder,measurement,setting,value
B1,glycan array binding signal (z-score),[1],-0.352
same,glycan array binding signal (z-score),[2],-0.488
same,glycan array binding signal (z-score),[3],-0.55
same,glycan array binding signal (z-score),[4],0.066
same,glycan array binding signal (z-score),[5],-0.281
same,glycan array binding signal (z-score),[6],-0.469
same,glycan array binding signal (z-score),[7],-0.044
same,glycan array binding signal (z-score),[8],-0.393
same,glycan array binding signal (z-score),[9],-0.526
same,glycan array binding signal (z-score),[10],3.17
same,glycan array binding signal (z-score),[11],-0.208
same,glycan array binding signal (z-score),[12],-0.23
same,glycan array binding signal (z-score),[13],-0.286
same,glycan array binding signal (z-score),[14],-0.369
same,glycan array binding signal (z-score),[15],1.24
same,glycan array binding signal (z-score),[16],-0.321
same,glycan array binding signal (z-score),[17],0.24
same,glycan array binding signal (z-score),[18],0.1
same,glycan array binding signal (z-score),[19],-0.027
same,glycan array binding signal (z-score),[20],-0.401
same,glycan array binding signal (z-score),Neu5Ac(a2-6)GalNAc,-0.112
same,glycan array binding signal (z-score),[21],-0.851
same,glycan array binding signal (z-score),[22],-0.012
